Experimental data from PubChem BioAssay AID1159614 (National Center for Advancing Translational Sciences (NCATS), 2016).
The campaign covered roughly 45,000 compounds. About 65 (0.1%) were called active. Calls follow the shape of the dose curve; as a rule, active = well fitted activation curve with a large enough effect; inconclusive = small, poorly fitted or top-dose-only effect; inactive = no such curve, though single readings can be large or run the other way. The list shows a part of the results.

These compounds were tested against Galactocerebrosidase (Homo sapiens) (UniProt P54803) (assay: A Novel Cell-Based Assay to Identify Small Molecules for B -Galactocerebrosidase). Conditions: 145M-Twi-hGALC-G270D cells (Twitcher mouse brain line with human GALC G270D), HMU-beta-Gal fluorescence, 48 h; series mostly up to 57.5 µM; activation: at the top concentration.
UniProt P54803, sequence (P54803 whole entry, looked up): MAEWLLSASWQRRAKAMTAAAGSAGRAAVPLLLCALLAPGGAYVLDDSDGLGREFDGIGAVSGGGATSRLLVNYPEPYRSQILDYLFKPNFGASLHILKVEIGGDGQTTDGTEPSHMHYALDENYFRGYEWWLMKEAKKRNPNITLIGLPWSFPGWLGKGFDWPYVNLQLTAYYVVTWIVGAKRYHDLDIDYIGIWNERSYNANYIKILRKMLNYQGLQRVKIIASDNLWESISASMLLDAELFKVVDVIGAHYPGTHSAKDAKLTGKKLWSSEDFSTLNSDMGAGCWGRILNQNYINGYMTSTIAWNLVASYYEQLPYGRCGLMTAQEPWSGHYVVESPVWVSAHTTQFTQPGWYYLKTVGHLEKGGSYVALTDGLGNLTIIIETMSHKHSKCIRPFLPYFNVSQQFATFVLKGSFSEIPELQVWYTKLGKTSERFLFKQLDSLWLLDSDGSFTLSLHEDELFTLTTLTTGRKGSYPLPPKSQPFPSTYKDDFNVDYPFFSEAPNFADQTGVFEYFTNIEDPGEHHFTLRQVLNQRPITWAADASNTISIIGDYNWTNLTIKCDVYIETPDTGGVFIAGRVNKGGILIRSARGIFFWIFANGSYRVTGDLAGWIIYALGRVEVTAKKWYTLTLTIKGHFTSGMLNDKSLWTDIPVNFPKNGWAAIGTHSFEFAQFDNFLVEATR
Source text: Lysosomal storage diseases (LSDs) are caused by genetic mutations in genes encoding proteins important for normal lysosomal function. Globoid cell leukodystrophy (GLD), mostly known as Krabbe disease, is a prototype of the neurological LSDs caused by deficiency of beta-galactocerebrosidase (GALC). In brain specimens of GLD patients, psychosine levels are substantially elevated. At elevated concentrations, psychosine becomes cytotoxic to neuronal cells, particularly to oligodendrocytes (OLG), neural cells responsible for myelin formation. Therefore, the biochemical disturbances in GLD are manifested by different degrees of brain demyelination resulting in a broad spectrum of neurological manifestations. Most of the FDA-approved therapies are based on enzyme replacement therapeutic (ERT) agents, which treat non-neurological symptoms of Gaucher disease, Fabry disease, few mucopolysaccharidoses and Pompe disease. Unfortunately, in GLD, a primarily neurological LSD, ERT agents, as large molecular weight molecules unable to cross the blood-brain barrier, which makes this an inefficacious therapeutic approach. In GLD, increasing the residual GALC activity just above the critical threshold (~10% of wild type enzymatic activity), the cytotoxic levels of psychosine will be reduced, avoiding the OLGs apoptosis and the subsequent demyelination process. This will translate in disease stabilization and amelioration of GLD patient symptoms.
A cell-based assay in 1,536-well plate format was developed to implement a quantitative high-throughput screening (qHTS) assay using GLD-disease relevant cells to identify small molecules that produce enhancements of the residual enzymatic activity levels of mutants GALC found and prevalent in GLD patients. Compounds that are active may therefore have some therapeutic application for GLD. After the treatment of live cells for a determined period, using a fluorescent GALC specific substrate, the mutant residual GALC activity is measured. This cell-based qTHS assay was used to screen part of the MLPCN library for small molecule able to increase the mutant GALC enzymatic activity. In this assay, increased fluorescent signal corresponds to enhanced levels of mutant GALC residual enzymatic activity. Activation is the desired outcome for this assay.
NIH Chemical Genomics Center [NCGC]
NIH Molecular Libraries Probe Centers Network [MLPCN]
Assay Submitter (PI): Gustavo Maegawa MD,PhD, University of Florida, Gainesville, FL
2)#Two cell lines were established for the assay: 145M-Twi-hGALC-G270D (brain-derived Twitcher cell line stably expressing human GALC-G270D) and 145M-Twi-hGALC-WT (same 145M-Twi stably expressing human GALC wild type). The Twitcher is the murine C57B/6 model for GLD with naturally occurring homozygous nonsense GALC mutation. The 145M-Twi cell line was established at Maegawa lab (Ribbens J et al 2014).
a.#Media: DMEM/F12 (1:1) with 10% fetal bovine-serum (FBS) with penicillin/streptomycin (PS-1X - 100 I.U./mL of penicillin+100 ug/mL of streptomycin).
b.#The 6-Hexadecanoylamino-4-methylumbelliferyl-b-D-galactoside (HMU-B-gal) substrate was prepared as per Wiederschain et al 1992. Using 20-mL borosilicate tubes, 2.20 mg of HMU-b-Gal was added in each tube to prepare substrate-film with a final air-nitrogen stream evaporation to remove all diluent solvents.
c.#The HMUb-Gal substrate buffer consists of 0.2 M Na2HPO4 (sodium phosphate dibasic)/ 0.1 M Citric Acid with the pH adjusted to 5.2 using HCl. Sodium Azide at 0.02% and Sodium Taurocholate (NaTC) at 1 mg/mL were added to this substrate buffer.
d.#The HMU-b-Gal stopping buffer consist of 0.5 M NaHCO3 (sodium bicarbonate) /0.5 M Na2CO3 (sodium carbonate). […] Triton X-100 at 0.25% was added.
4)#Preparation of HMU-b-Gal substrate tubes
Adding 18.6 mL of the HMUb-Gal substrate buffer to each 20-mL tube (2.20 mg of HMU-b-Gal) will reach a concentration of 0.2 mM. Vortex well the tube until the solution is fully homogenized (clear cloudy solution). […]
Also: 0% is about no effect; nearly all actives have a fitted effect of over 65% in size.

activation, inactive:
COC(=O)c1sccc1S(=O)(=O)N1CCN(c2cccc(C)c2C)CC1 4.26%
O=C(CSc1n[nH]c(-c2ccccc2)n1)N1CCCCC1 -14.9%
CCCCC(CC)COC(=O)/C=C/c1ccc(OC)cc1 (stereo unspecified) -13.1%
CCOC(=O)Cn1c(=O)oc2cc(S(=O)(=O)NCc3ccc(F)cc3)ccc21 -13.2%
COc1ccc(CNC(=O)C(=O)NCC(c2ccc3c(c2)OCO3)N2CCOCC2)cc1 (stereo unspecified) -15.6%
O=C1CC(c2ccccc2)Cc2[nH]c(=O)c(-c3nc(-c4cccc(Cl)c4)cs3)cc21 (stereo unspecified) -18.8%
Cc1noc(/C=C/N(C)C)c1S(=O)(=O)N1CCCC(C(=O)Nc2cccc(F)c2)C1 (stereo unspecified) -11.6%
CCN(CC)CCc1nc(-c2ccccc2)no1 -18%
CCOc1ccc(-c2cc3c(=O)n(Cc4nc(-c5cccc(OC)c5OC)oc4C)ccn3n2)cc1Cl -6.47%
Cc1ccc(CNC(=O)c2nc(SCc3cccc(C)c3)ncc2Cl)cc1 15%
CCc1ccc(-n2nc3ccc(NC(=O)c4cc5ccccc5o4)cc3n2)cc1 -15.7%
Cc1ccc(CNC(=O)c2cn(C)c3ccc(S(=O)(=O)N(C)C4CCCCC4)cc3c2=O)cc1 -8.82%
Cc1ccccc1Nc1c(-c2ccsc2)nc2c(C)cccn12 -9.18%
O=C(NCc1cccc(Cl)c1)c1cccn1-c1nnc(N2CCCC2)s1 -6.47%
O=C(NCCc1ccccc1)c1ccc(Cn2c(SCc3ccc(F)cc3)nc3cccnc32)cc1 16.7%
Cc1cc(C)c(Cn2c3ccccc3c3cnn(CC(=O)NCCCc4ccccc4)c(=O)c32)c(C)c1 -1.04%
COc1ccc(OC)c(S(=O)(=O)N2Cc3ccccc3CC2C(=O)Nc2ccc(C(C)=O)cc2)c1 (stereo unspecified) -5.57%
CCC(=O)N1CCc2cc(S(=O)(=O)CCC(=O)N3CCN(c4cccc(C)c4)C(C)C3)ccc21 (stereo unspecified) -8.53%
CCN(Cc1ccc(OC)cc1)c1ccc(-c2nc(-c3ccncc3)no2)cc1[N+](=O)[O-] -39.3%
Cc1ccccc1NC(=O)Cn1c(=O)n(Cc2ccc3c(c2)OCO3)c(=O)c2oc3ccccc3c21 5.44%
Cc1cc(C)cc(C(=O)Nc2cc(C(F)(F)F)ccc2N2CCN(c3ccccc3)CC2)c1 -12%
Cc1ccc(-c2cn3cccc(C)c3n2)cc1NS(=O)(=O)c1ccccc1 -20.4%
Cc1ccc(CN(Cc2ccco2)c2cnc(S(C)(=O)=O)nc2C(=O)Nc2ccc(Br)cc2)o1 -10.3%
CC(C)Cn1c(=O)c2ccccc2n2c(-c3ccc(Br)cc3)nnc12 -12%
CCCCN(c1ccccc1)c1ncnc2c1cnn2-c1ccc(Cl)cc1 -15.4%
COc1ccc(OC)c(CCNC(=O)CCn2c(=O)c3cccn3c3cccnc32)c1 -10.9%
Cc1cccc(N(CC(=O)NC(C)c2ccccc2)S(=O)(=O)c2ccccc2)c1C (stereo unspecified) 0.143%
Cc1ccc(-c2nn3c(C)nnc3c3ccccc23)cc1S(=O)(=O)NCCO -16.2%
CC(=O)Nc1ccc(S(=O)(=O)NCC2CCC(C(=O)NCCCOC(C)C)CC2)cc1 (stereo unspecified) -4.18%
CCOc1cc(C(=O)OCc2cc(=O)n3c(C)csc3n2)cc(OCC)c1OCC -6.92%
O=C(c1ccccc1)N1CCc2cc(CNS(=O)(=O)c3ccccc3Cl)ccc21 -2.64%
CCOC(=O)c1ccc(NC(=O)c2noc3c2CCCC3)cc1 -11.2%
Cn1cc(CCCC(=O)NCc2ccc(F)cc2)c2ccccc21 -10.6%
CCOc1ccc(-c2cc3nc(C4CCN(C(=O)OC(C)(C)C)CC4)c(C(=O)Nc4cccc(Cl)c4C)cn3n2)cc1 -5.51%
O=C1NC(NS(=O)(=O)c2ccccc2)(C(F)(F)F)C(=O)N1CCc1ccccc1 (stereo unspecified) 16.7%
Brc1ccc(-c2cn3cc(Cc4ccccc4)sc3n2)cc1 -2.19%
CC1CCN(S(=O)(=O)c2ccc3[nH]ccc3c2)CC1 -10.5%
CC(=O)N1CCCc2cc(S(=O)(=O)N3CCCC(C(=O)Nc4ccc(F)cc4F)C3)ccc21 (stereo unspecified) -50.4%
O=S(=O)(NCCc1nnc2ccc(SCc3cccc(Cl)c3)nn12)c1ccccc1 -16.5%
Cc1cc(N2CCN(C)CC2)nc2ccc(NC(=O)Nc3ccc(F)cc3)cc12 -9.06%
COc1ccc(Cn2c(CNC(=O)Cc3ccc(OC)c(OC)c3)nc3cccnc32)cc1 0.978%
O=C(CCC(=O)N1CCOc2ccccc21)NCc1cccs1 -6.85%
CC(NCCC(c1ccccc1)c1ccccc1)c1ccccc1 (stereo unspecified) -4.18%
CCN(c1ccccc1)c1ncnc2c1cnn2-c1ccc(OC)cc1 -14.3%
Cc1ccc2[nH]c3c(=O)n(CC(=O)N4CCN(c5ccccc5F)CC4)ncc3c2c1 -5.47%
COc1cccc(CC(=O)Nc2c(C(=O)N3CCN(c4ccccc4)CC3)oc3ccccc23)c1 -11.5%
Cc1ccc(Cn2c(SCc3ccc(C(=O)O)cc3)nc3cccnc32)cc1 -8.24%
COc1ccc(C(=O)N(Cc2ccco2)Cc2ccccc2F)cc1Cl -1.77%
O=C(Cn1c(=O)n(Cc2ccco2)c(=O)c2sc3ccccc3c21)Nc1ccc(F)cc1F -16.1%
O=C(NCC(c1ccco1)S(=O)(=O)c1ccc(Cl)cc1)c1ccc(C(F)(F)F)cc1 (stereo unspecified) -8.46%
COc1ccc(-c2cc(C(F)(F)F)c(C#N)c(SCC(=O)Nc3cccc(C)c3)n2)cc1 -3.85%
CCC(C)n1c(=O)c2sccc2n2c(CCCC(=O)Nc3ccc(F)cc3)nnc12 (stereo unspecified) -3.58%
CSc1ncc(Cl)c(C(=O)Nc2c(C(=O)c3ccc(C)cc3)oc3ccccc23)n1 -12.2%
CCN(CCCNC(=O)CN1N=C(c2ccccc2)CCC1=O)c1cccc(C)c1 -13.7%
CCOc1ccc(CCNC(=O)c2ccc3nc(N4CCC(C)CC4)sc3c2)cc1OCC -3.04%
COc1ccc(NC(=O)c2ccco2)cc1NC(=O)c1cccc(C)c1OC -1.35%
Cc1ccccc1-n1c(SCC(=O)c2ccccc2)nnc1-c1ccc(F)cc1 -2.5%
Cc1ccc(SCC(=O)Nc2ccc(O)c(-c3nc4cc(C)ccc4o3)c2)cc1 -18.2%
Cc1ccc(NC(=O)NC(C)c2c(-n3cccc3)sc(C)c2C)c(C)c1 (stereo unspecified) 3.64%
COc1ccc(Cn2c(CCC(=O)Nc3cc(C)cc(C)c3)nc3cccnc32)cc1 -18.8%
Cc1ccc(CNC(=O)CCCCCn2c(=O)c3sccc3n(CC(=O)C(C)(C)C)c2=O)cc1 -7.9%
Cc1ccc2c(CN3CCN(c4ccc(Cl)cc4)CC3)cc(=O)oc2c1 -9.61%
O=C(Nc1ccccc1)C1CCN(S(=O)(=O)c2ccc3c(c2)CCCN3C(=O)C2CCC2)CC1 -18.4%
CCOc1cc(CNC(=O)CSc2n[nH]c(-c3ccccc3)n2)cc(OCC)c1OCC 4.86%
Cc1ccc(NC(=O)CSc2nc(=O)n(Cc3ccncc3)c3c2CCC3)cc1Cl -11.4%
COC(=O)c1cc(NC2(c3ccccc3)C(=O)c3ccccc3C2=O)cc(C(=O)OC)c1 -13.4%
COc1ccc(Nc2ncc(C(=O)Nc3cccc(OC)c3)c3ccccc23)cc1 -6.91%
Cc1ccc(Cl)cc1N(C)C(=O)c1sc2nc3n(c(=O)c2c1C)CCCC3 -11.1%
CCc1ccccc1NC(=O)Cn1c(=O)n(-c2ccccc2)c(=O)c2oc3ccccc3c21 5.55%
CCOc1cc(C#N)c(NC(=O)c2ccc(OC)c(S(=O)(=O)N3CCCCC3)c2)cc1OCC -2.85%
CC(=O)c1ccc(NC(=O)c2cnc(N3CCCC3)nc2C)cc1 -23.3%
COc1ccc(NC(=O)Cn2c(=O)n(Cc3ccco3)c(=O)c3sc4ccccc4c32)cc1OC -16.8%
O=C(Cn1c(=O)n(Cc2ccco2)c(=O)c2ccccc21)Nc1cccc(F)c1 -10.3%
Cc1ccc(-n2c(-c3ccc(Br)cc3)nc3c(cnn3-c3ccccc3)c2=O)cc1 -7.18%
CCN(C(=O)CSc1nc(-c2ccc(C(C)C)cc2)no1)c1ccccc1 -6.38%
O=C(Nc1nnc(S(=O)(=O)N2CCCc3ccccc32)s1)c1ccc(Cl)cc1 -3.67%
COc1ccc2c(c1)CC(C(=O)Nc1ccc(Br)c(C)c1)CO2 (stereo unspecified) -9.2%
O=C(C1CCCCC1)N(Cc1cccnc1)c1nc2ccc(Cl)cc2s1 -25.2%
Cc1ccc(N2CCN(C(=O)c3cn(C)c4ccc(S(=O)(=O)N5CCC(C)CC5)cc4c3=O)CC2C)cc1 (stereo unspecified) -18.1%
COc1ccccc1N1CCN(S(=O)(=O)c2ccc(-c3coc(C)n3)cc2)CC1 1.1%
Cc1c2cnn(-c3ccccc3)c(=O)c2c(C)n1CC(=O)Nc1ccccc1Br -3.1%
Cc1ccccc1-c1nc(CS(=O)(=O)CC(=O)NCCCN2CCN(C)CC2)c(C)o1 4.32%
Cc1c(N(C)CS(=O)(=O)O)c(=O)n(-c2ccccc2)n1C -9.94%
COc1ccc(C(=O)NCC(=O)OCc2cc(=O)n3nc(C4CCCCC4)sc3n2)cc1 -1.73%
COc1ccc(-n2nnc(-c3nc(-c4ccc5c(c4)OCO5)no3)c2C)cc1Cl -12.5%
COc1ccc(NC(=O)CSc2nncn3c2cc2occc23)c(OC)c1 -19.7%
CC(C)Oc1ccc(C(=O)N2CCC(c3nc4ccccc4s3)CC2)cc1 -21.7%
COc1cc(C(=O)Nc2ccc(-c3nc4cc(C)c(C)cc4o3)cc2)cc(OC)c1OC -9.48%
Cc1ccc(SCCNC(=O)CN(c2cccc(C)c2C)S(C)(=O)=O)cc1 -11.6%
CCOC(=O)c1ccc(NC(=O)CCc2c(C)nc3cc(-c4ccc(OC)cc4OC)nn3c2C)cc1 -20.5%
CC(=O)Nc1ccc(S(=O)(=O)N2CCC(n3c(C)nc4cccnc43)CC2)cc1 -25.9%
CCC(C)NC(=O)Cn1c(=O)n(-c2cc(OC)cc(OC)c2)c(=O)c2ccccc21 (stereo unspecified) -13.2%
CCOC(=O)c1c(C)oc2nc(C)nc(NCCc3ccc(OCC)cc3)c12 -14.9%
COc1ccc(C(=O)Nc2ccc(-c3nc4cc(C)ccc4o3)c(O)c2)cc1 -1.08%
CCN1CCC(N(Cc2ccc(F)cc2)C(=O)Nc2ccc(C)c(F)c2)CC1 -26.7%
CCOc1ccc(NC(=O)Cn2cc(C(=O)C3CC3)c3ccccc32)cc1 -11.6%
